From the supplement of paper PMC4967469
pIC50: −log10 of the molar value. The IC50 comes from the fitted curve, where viability falls to half of the control; a fit beyond the top or the lowest dose is shown as a bound at that dose. The AUC spans the tested range (256-fold, ending at the top dose) of the same fit; the more sensitive the line, the further below 1. For part of these data: Any top dose called inferred was derived from the fitted curves, not read from the paper.

Key:
Experiment in all cases: Viability of human cancer cell lines after 72 h of drug (GDSC screen)
[1] = compound: COC1=CC(c2cc3ccccc3[nH]2)=N/C1=C\c1[nH]c(C)cc1C [Obatoclax mesylate]; details: top dose 16 µM
Procedure: (§1)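 Human cancer cell lines in 384-well plates, medium with 10% serum, drug for 72 h over a 256-fold dose range (nine 2-fold or five 4-fold steps up to the top dose). Adherent lines were fixed and stained with the nucleic acid dye Syto60, suspension lines read with resazurin; signal relative to control wells, capped at 0 and 100%. One two-parameter sigmoid per drug and line, fitted in a mixed model over all curves with the slope shared within a line.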

[2] = compound: COCC(=O)NC/C=C/c1ccc2ncnc(Nc3ccc(Oc4ccc(C)nc4)c(C)c3)c2c1 [CP724714]; details: top dose 10.24 µM; top dose inferred
Procedure: as §1

[3] = compound: Cc1cccc(Nc2nc(-c3ccncc3)cs2)c1 [STF-62247]; details: top dose 10.24 µM; top dose inferred
Procedure: as §1

[4] = compound: Cc1cnc(CNC(=O)c2c(=O)c3ccc(N4CCCN(C)CC4)nc3n3c2sc2ccccc23)cn1 [CX-5461]; details: top dose 10.24 µM; top dose inferred
Procedure: as §1

Work on FTC-133 (thyroid, adherent) yielded an AUC [1] of 0.627, a pIC50 [1] of 5.63 and an AUC [2] of 0.959. The pIC50 [2] was under 4.99, the AUC [3] was 0.978 and the pIC50 [3] was under 4.99. The AUC [4] was 0.986 and the pIC50 [4] was under 4.99.
In the case of FU97 (stomach, adherent), the AUC [1] was 0.174, the pIC50 [1] was 7.00 and the AUC [2] was 0.973. For the same cell line, the pIC50 [2] was under 4.99, the AUC [3] was 0.982 and the pIC50 [3] was under 4.99. The AUC [4] was 0.983 and the pIC50 [4] was under 4.99.
FU-OV-1 (ovary, adherent) gave an AUC [1] of 0.468, a pIC50 [1] of 6.10 and an AUC [2] of 0.966. The pIC50 [2] was under 4.99, the AUC [3] was 0.973 and the pIC50 [3] was under 4.99. The AUC [4] was 0.982 and the pIC50 [4] was under 4.99.
Work on G-361 (melanoma, adherent) yielded an AUC [1] of 0.064, a pIC50 [1] of over 7.20 and an AUC [2] of 0.946. It also gave a pIC50 [2] of under 4.99, an AUC [3] of 0.97 and a pIC50 [3] of under 4.99. For the same cell line, the AUC [4] was 0.926 and the pIC50 [4] was under 4.99.
G-401 (kidney, adherent) showed an AUC [1] of 0.113, a pIC50 [1] of over 7.20 and an AUC [2] of 0.95. It also gave a pIC50 [2] of under 4.99, an AUC [3] of 0.981 and a pIC50 [3] of under 4.99. For the same cell line, the AUC [4] was 0.62 and the pIC50 [4] was 5.85.
Cell Line G-402 (soft tissue, adherent) has an AUC [1] of 0.389, a pIC50 [1] of 6.35 and an AUC [2] of 0.969. It also gave a pIC50 [2] of under 4.99, an AUC [3] of 0.958 and a pIC50 [3] of under 4.99. The AUC [4] was 0.819 and the pIC50 [4] was 5.07.
In the case of G-MEL (melanoma, adherent), the AUC [1] was 0.169, the pIC50 [1] was 7.00 and the AUC [2] was 0.943. The pIC50 [2] was under 4.99, the AUC [3] was 0.986 and the pIC50 [3] was under 4.99. It also gave an AUC [4] of 0.986 and a pIC50 [4] of under 4.99.
GAMG (glioma, adherent) was tested, and the AUC [1] was 0.178, the pIC50 [1] was 7.00 and the AUC [2] was 0.971. For the same cell line, the pIC50 [2] was under 4.99, the AUC [3] was 0.886 and the pIC50 [3] was under 4.99. The AUC [4] was 0.769 and the pIC50 [4] was 5.39.
Work on GCT (soft tissue, adherent) yielded an AUC [1] of 0.644, a pIC50 [1] of 5.62 and an AUC [2] of 0.989. It also gave a pIC50 [2] of under 4.99, an AUC [3] of 0.985 and a pIC50 [3] of under 4.99. The AUC [4] was 0.989 and the pIC50 [4] was under 4.99.
Cell Line GMS-10 (glioma, adherent) has an AUC [1] of 0.621, a pIC50 [1] of 5.67 and an AUC [2] of 0.988. It also gave a pIC50 [2] of under 4.99, an AUC [3] of 0.986 and a pIC50 [3] of under 4.99. For the same cell line, the AUC [4] was 0.988 and the pIC50 [4] was under 4.99.
Cell Line GP5d (large intestine, adherent) has an AUC [1] of 0.226, a pIC50 [1] of 6.75 and an AUC [2] of 0.963. The pIC50 [2] was under 4.99, the AUC [3] was 0.991 and the pIC50 [3] was under 4.99. It also gave an AUC [4] of 0.95 and a pIC50 [4] of under 4.99.
In the case of H4 (glioma, adherent), the AUC [1] was 0.538, the pIC50 [1] was 5.90 and the AUC [2] was 0.985. It also gave a pIC50 [2] of under 4.99, an AUC [3] of 0.985 and a pIC50 [3] of under 4.99. For the same cell line, the AUC [4] was 0.979 and the pIC50 [4] was under 4.99.
Cell Line H513 (mesothelioma, semi-adherent) has an AUC [1] of 0.737, a pIC50 [1] of 5.25 and an AUC [2] of 0.946. It also gave a pIC50 [2] of under 4.99, an AUC [3] of 0.986 and a pIC50 [3] of under 4.99. The AUC [4] was 0.977 and the pIC50 [4] was under 4.99.
Cell Line H2369 (mesothelioma, adherent) has an AUC [1] of 0.282, a pIC50 [1] of 6.63 and an AUC [2] of 0.984. It also gave a pIC50 [2] of under 4.99, an AUC [3] of 0.986 and a pIC50 [3] of under 4.99. For the same cell line, the AUC [4] was 0.987 and the pIC50 [4] was under 4.99.
For H2373 (mesothelioma, adherent), the AUC [1] was 0.553, the pIC50 [1] was 5.84 and the AUC [2] was 0.983. For the same cell line, the pIC50 [2] was under 4.99, the AUC [3] was 0.98 and the pIC50 [3] was under 4.99. It also gave an AUC [4] of 0.977 and a pIC50 [4] of under 4.99.
H2461 (mesothelioma, adherent) gave an AUC [1] of 0.513, a pIC50 [1] of 5.96 and an AUC [2] of 0.983. The pIC50 [2] was under 4.99, the AUC [3] was 0.983 and the pIC50 [3] was under 4.99. It also gave an AUC [4] of 0.983 and a pIC50 [4] of under 4.99.
H2591 (mesothelioma, adherent) gave an AUC [1] of 0.538, a pIC50 [1] of 5.88 and an AUC [2] of 0.971. It also gave a pIC50 [2] of under 4.99, an AUC [3] of 0.929 and a pIC50 [3] of under 4.99. The AUC [4] was 0.951 and the pIC50 [4] was under 4.99.
In the case of H2595 (mesothelioma, adherent), the AUC [1] was 0.489, the pIC50 [1] was 6.03 and the AUC [2] was 0.978. For the same cell line, the pIC50 [2] was under 4.99, the AUC [3] was 0.962 and the pIC50 [3] was under 4.99. The AUC [4] was 0.911 and the pIC50 [4] was under 4.99.
H2722 (mesothelioma, adherent) was tested, and the AUC [1] was 0.463, the pIC50 [1] was 6.11 and the AUC [2] was 0.967. The pIC50 [2] was under 4.99, the AUC [3] was 0.982 and the pIC50 [3] was under 4.99. For the same cell line, the AUC [4] was 0.983 and the pIC50 [4] was under 4.99.
H2731 (mesothelioma, adherent) was tested, and the AUC [1] was 0.374, the pIC50 [1] was 6.37 and the AUC [2] was 0.976. It also gave a pIC50 [2] of under 4.99, an AUC [3] of 0.822 and a pIC50 [3] of 5.15. For the same cell line, the AUC [4] was 0.875 and the pIC50 [4] was under 4.99.
H2795 (mesothelioma, adherent) gave an AUC [1] of 0.69, a pIC50 [1] of 5.47 and an AUC [2] of 0.956. For the same cell line, the pIC50 [2] was under 4.99, the AUC [3] was 0.803 and the pIC50 [3] was 5.30. The AUC [4] was 0.982 and the pIC50 [4] was under 4.99.
H2803 (mesothelioma, adherent) was tested, and the AUC [1] was 0.533, the pIC50 [1] was 5.90 and the AUC [2] was 0.976. It also gave a pIC50 [2] of under 4.99, an AUC [3] of 0.984 and a pIC50 [3] of under 4.99. It also gave an AUC [4] of 0.96 and a pIC50 [4] of under 4.99.
Work on H2804 (mesothelioma, adherent) yielded an AUC [1] of 0.474, a pIC50 [1] of 6.07 and an AUC [2] of 0.963. It also gave a pIC50 [2] of under 4.99, an AUC [3] of 0.983 and a pIC50 [3] of under 4.99. The AUC [4] was 0.982 and the pIC50 [4] was under 4.99.
For H2818 (mesothelioma, adherent), the AUC [1] was 0.786, the pIC50 [1] was 5.15 and the AUC [2] was 0.974. The pIC50 [2] was under 4.99, the AUC [3] was 0.98 and the pIC50 [3] was under 4.99. It also gave an AUC [4] of 0.989 and a pIC50 [4] of under 4.99.
In the case of H2869 (mesothelioma, adherent), the AUC [1] was 0.414, the pIC50 [1] was 6.26 and the AUC [2] was 0.953. The pIC50 [2] was under 4.99, the AUC [3] was 0.982 and the pIC50 [3] was under 4.99. It also gave an AUC [4] of 0.969 and a pIC50 [4] of under 4.99.
Work on H3118 (head and neck, adherent) yielded an AUC [1] of 0.078, a pIC50 [1] of over 7.20 and an AUC [2] of 0.912. For the same cell line, the pIC50 [2] was under 4.99, the AUC [3] was 0.983 and the pIC50 [3] was under 4.99. For the same cell line, the AUC [4] was 0.802 and the pIC50 [4] was 5.25.
Work on H3255 (lung adenocarcinoma, adherent) yielded an AUC [1] of 0.298, a pIC50 [1] of 6.62 and an AUC [2] of 0.876. The pIC50 [2] was under 4.99, the AUC [3] was 0.973 and the pIC50 [3] was under 4.99. For the same cell line, the AUC [4] was 0.979 and the pIC50 [4] was under 4.99.
